# According to PubChem BioAssay AID1671189 (National Center for Advancing Translational Sciences (NCATS), 2021):
# Among all 1,100 compounds or so, about 70 (6%) were called active. About 22% were inconclusive and are not listed. Calls come from the whole dose curve; as a rule, active = well fitted curve in the direction sought with a large enough effect; inconclusive = small, poorly fitted or top-dose-only effect, or another doubt; inactive = no such curve, though single readings can be large or run the other way. This is one part of the list.
# Target: Polyunsaturated fatty acid lipoxygenase ALOX12 (Homo sapiens) (UniProt P18054)
# Chain of UniProt P18054 (P18054 whole entry, looked up): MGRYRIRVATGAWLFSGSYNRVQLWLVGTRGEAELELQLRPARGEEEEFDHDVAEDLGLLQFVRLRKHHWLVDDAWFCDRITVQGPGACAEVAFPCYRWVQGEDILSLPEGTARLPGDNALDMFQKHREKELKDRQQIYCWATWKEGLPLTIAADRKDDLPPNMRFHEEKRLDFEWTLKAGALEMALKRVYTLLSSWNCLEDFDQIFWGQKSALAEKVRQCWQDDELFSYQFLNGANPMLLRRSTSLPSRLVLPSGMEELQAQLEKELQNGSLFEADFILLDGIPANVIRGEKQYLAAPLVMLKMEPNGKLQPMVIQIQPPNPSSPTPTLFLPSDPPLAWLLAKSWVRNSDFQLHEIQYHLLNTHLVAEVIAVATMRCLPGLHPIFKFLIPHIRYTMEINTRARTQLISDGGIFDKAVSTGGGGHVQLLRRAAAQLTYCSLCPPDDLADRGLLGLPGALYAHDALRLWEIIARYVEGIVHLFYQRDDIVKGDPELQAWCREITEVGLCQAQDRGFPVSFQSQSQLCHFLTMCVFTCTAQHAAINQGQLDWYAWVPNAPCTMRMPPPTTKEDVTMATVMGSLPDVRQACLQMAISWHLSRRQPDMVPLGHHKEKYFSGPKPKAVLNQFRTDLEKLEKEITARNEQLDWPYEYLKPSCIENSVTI
# Assay: Confirmatory qHTS assay for inhibitors of human arachidonate 12S-lipoxygenase (ALOX12): Round 2
# Conditions: purified human 12-LOX, xylenol orange absorbance; series mostly up to 125 µM; activity change, negative = inhibition: at the top concentration
# Summary of the method: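 Activity was measured as hydroperoxide formation via ferrous/xylenol orange, taking the 573 nm to 405 nm absorbance ratio. Reaction: 40 uM arachidonic acid, 30 min at room temperature, after 15 min compound preincubation with 150 nM enzyme, pH 7.0 Hepes buffer.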
# % is set by controls: 0 for no effect and ±100 for the full control effect; potency is the fitted concentration of half-maximal effect.
Structure (SMILES),"activity change, negative = inhibition",Potency
C[C@@H](CC(=O)O)[C@@H](N)C(=O)O,inactive: -1.01%,–
CC1CCCN(c2ncnc3c2CN(C2CCNCC2)C(=O)CN3C)C1 (stereo not given),inactive: -21%,–
O=C(c1ccccc1)N1Cc2ccccc2CC2(CCCCN2CC2CCNC2)C1 (stereo not given),inactive: -25.9%,–
CCN1CCCC12Cc1ccccc1CN([S+](C)(=O)[O-])C2 (stereo not given),inactive: -17.1%,–
CCn1cc(-c2ccc(C)cc2)cc1C(=O)N1CCN(c2ccccn2)CC1,inactive: -19.2% [at 64.5 µM],–
COc1ccc(CC(=O)N2Cc3ccccc3CC23CCCN([S+](C)(=O)[O-])C3)cc1 (stereo not given),inactive: -10.5%,–
N#Cc1ccc(CN2CCn3c(nn(-c4cccc(Cl)c4)c3=O)C2)cc1,inactive: -26.4%,–
COC(=O)[C@@H]1Cc2ncn(Cc3ccc(OC)cc3)c2CN1Cc1ccc(OC)cc1,inactive: -11.9%,–
COc1ccccc1N1C(=O)C=C(Sc2nc(C)cc(C)n2)C1=O,inactive: -21.2%,–
COc1cccc(-c2ccc(CN)cc2)c1,inactive: -0.015%,–
Fc1ccc(OC2CN(CC3CC3)C2)cc1F,inactive: -22.7% [at 233 µM],–
Fc1ccc(-c2ccc3ncc(Nc4ncccn4)n3n2)cc1,inactive: 15.6% [at 64.5 µM],–
COc1ccc(CNc2ncnc3c2CN(C2CCNC2)C(=O)CN3C)cc1OC (stereo not given),inactive: -15.6%,–
CN1CC(=O)N(C2CCNC2)Cc2c(NCC3(O)CCCCC3)ncnc21 (stereo not given),inactive: -19.9%,–
CC(=O)Nc1ccc(CN2CCCC23Cc2ccccc2CN(C(=O)CCC(=O)O)C3)cc1 (stereo not given),inactive: -14%,–
CCN(c1ccc2c(c1)OCO2)C1CN(C(=O)OC(C)(C)C)C1,inactive: -29.3%,–
CN1CC(=O)N(C2CCNC2)Cc2c(NCCc3cccc(F)c3)ncnc21 (stereo not given),inactive: -17.9%,–
COCc1nc(C2CC(N)C2)cc(N2CCC(NS(C)(=O)=O)CC2)n1 (stereo not given),inactive: -26.2% [at 64.5 µM],–
CC(C)OCCCNc1ncnc2c1CN(C1CCCNCC1)C(=O)CN2C (stereo not given),inactive: -7.35%,–
Cc1cncnc1C1CCN(c2cc(C3CC(N)C3)ncn2)CC1 (stereo not given),inactive: -9.06% [at 64.5 µM],–
COCCn1cc2c3c(cccc31)CN(C(=O)c1cccc(Cl)c1)CC2,inactive: 37.4% [at 64.5 µM],–
CCCC(=O)N1Cc2ccccc2CC2(CCN(Cc3ccccc3)CC2)C1,inactive: -3.28%,–

Structure (SMILES),"activity change, negative = inhibition",Potency
COc1ccccc1CNc1ncnc2c1CN(C1CCCNCC1)C(=O)CN2C (stereo not given),inactive: -16%,–
O=C(NCC(F)(F)F)c1cc(C2CC2)nc2c1c(C1CCCN1)nn2-c1ccccc1 (stereo not given),inactive: -27.3%,–
CC(C)c1nc2c(c(-c3ccc(Cl)cc3)n1)CCN(C(=O)c1ccc3c(c1)OCO3)CC2,inactive: -23.4%,–
COc1ccc(-c2cc(C(=O)NCC(C)C)c3c(C4CCCN4)noc3n2)cc1 (stereo not given),inactive: -9.44%,–
COC(=O)[C@@H]1Cc2nc[nH]c2CN1Cc1ccc(C(=O)O)cc1,inactive: 18.8%,–
CCOCCCNc1ncnc2c1CN(C1CCNCC1)C(=O)CN2C,inactive: -15.7%,–
O=C(NCC1(O)CCCNCC1)c1ccc(-n2cnnc2)cc1 (stereo not given),inactive: -17.1% [at 64.5 µM],–
CN1CC(=O)N(C2CCNCC2)Cc2c1ncnc2N1CCCC1CO (stereo not given),inactive: -22.3%,–
CCCCCNc1ncnc2c1CN(C1CCCNCC1)C(=O)CN2C (stereo not given),inactive: -14.4%,–
CC(C)CNC(=O)c1cc(C2CC2)nc2onc(C3CCNCC3)c12,inactive: -20.9%,–
Cc1ccc(NC(=O)N2Cc3[nH]cnc3C[C@H]2c2nc(-c3ccc4ccccc4c3)no2)cc1,inactive: 3.35% [at 64.5 µM],–
Clc1ccc(-c2nnc(C3CCCCC3)o2)cc1,inactive: 10.2% [at 64.5 µM],–
O=C(c1ccncc1)N1CCC(c2nnc3n2CCNC3)CC1,inactive: -10.2%,–
CN1CC(=O)N(C2CCNCC2)Cc2c(NCCN3CCOCC3)ncnc21,inactive: 11.4%,–
CCC(=O)NC(c1cc(Cl)c2cccnc2c1O)C(C)C (stereo not given),–,active: 10.9 µM
CNCc1ccccc1-c1ccccc1,inactive: -15% [at 233 µM],–
Cc1cc(C(=O)NC2CC2)c2c(C3CCNCC3)noc2n1,inactive: -1.86%,–
COc1ccc(N2CC3CCC(C2)N3CC(C)C)cc1,inactive: -1.91%,–
Nc1ncn([C@H]2C[C@H](O)[C@@H](CO)O2)c(=O)n1,inactive: 8.57%,–
COc1ccc(-c2nc(C3CC3)nc3c2CCN(Cc2ccc(F)cc2)CC3)cc1,inactive: -30.4%,–
Cc1cc(C(=O)NC2CCCC2)c2c(C3CCNCC3)noc2n1,inactive: -16.9%,–
Cn1nc(C2CCCNC2)c2c(C(=O)NC3CC3)cc(C3CC3)nc21 (stereo not given),inactive: -12.1%,–

Structure (SMILES),"activity change, negative = inhibition",Potency
Cc1nn2c(c1-c1cccnc1N1CCOCC1)N(Cc1ccccc1F)CCC2,inactive: -1.37% [at 64.5 µM],–
COc1ccc(C(=O)N2CCOC3(CCN(C(=O)CN)CC3)C2)cc1,inactive: -13.5%,–
CC(C)C(=O)N1Cc2ccccc2CC2(CCCCN2CC2CCNC2)C1 (stereo not given),inactive: -15.4%,–
CN(C)CCC(=O)N1Cc2ccccc2CC2(CCCCN2CC2CCOCC2)C1 (stereo not given),inactive: -26.8%,–
Cc1nc(N2CCC(C(=O)NCc3ccc4c(c3)OCO4)CC2)cc(C(F)(F)F)n1,inactive: -10.7% [at 64.5 µM],–
Fc1ccc(CN2CCn3c(nnc3C3CCCNC3)C2)cc1 (stereo not given),inactive: -24.7%,–
Cn1nc(C2CCCN2)c2c(C(=O)NCc3ccncc3)cc(C3CC3)nc21 (stereo not given),inactive: -4.98%,–
COCCNc1nc2c([S+](=O)([O-])c3cc(OC)ccc3OC)nnn2c2ccccc12,inactive: -8.46%,–
O=C(c1ccccn1)N1CCc2nc(C3CC3)nc(-c3ccc(Cl)cc3)c2C1,inactive: -8.99%,–
CC(CO)Nc1ncnc2c1CN(C1CCCNC1)C(=O)CN2C (stereo not given),inactive: -11.5%,–
C[S+](=O)([O-])N1Cc2ccccc2CC2(CCCCN2CC2CCNCC2)C1 (stereo not given),inactive: -4.25%,–
O=Cc1ccc(-c2ccc(O)cc2)cc1,inactive: -27.2% [at 233 µM],–
CCc1ccc(S(=O)(=O)c2nnn3c2nc(NCc2ccc(F)cc2)c2ccccc23)cc1,inactive: -1.49%,–
CN1CC(=O)N(C2CCNCC2)Cc2c(NC3CCCCCC3)ncnc21,inactive: -12.8%,–
CNc1oc(-c2ccc(-c3ccccc3)cc2)nc1C#N,inactive: -4.38% [at 64.5 µM],–
C[S+](=O)([O-])N1CCCC(c2nnc3n2CCNC3)C1 (stereo not given),inactive: -12.1%,–
CN1CC(=O)N(c2cccc(F)c2)Cc2c(NC3CCNCC3)ncnc21,inactive: -12%,–
CN(C)C(=O)N1Cc2ccccc2OC2(CCN(C(=O)Cc3cnc[nH]3)CC2)C1,inactive: 11.9%,–
COc1ccc(CN2CCCC23Cc2ccccc2CNC3=O)cc1 (stereo not given),inactive: -13.4%,–
Cc1cc(Cn2cnc3c2C[C@@H](C(=O)O)N(C(=O)C(c2ccccc2)c2ccccc2)C3)ccc1N(C)C,inactive: -1.49%,–
O=c1[nH]c(C2CCCN(Cc3ccc(-c4ccsc4)cc3)C2)nc2ccc(F)cc12 (stereo not given),inactive: -30.3%,–
CN1CC(=O)N(C2CCNCC2)Cc2c1ncnc2N1CCC(O)CC1,inactive: -10.4%,–

Structure (SMILES),"activity change, negative = inhibition",Potency
O=C(O)c1cccc(-c2ccc(OC(F)(F)F)cc2)c1,inactive: -11.7%,–
COc1ccc(-n2nc3n(c2=O)CCN(C(=O)c2ccccn2)C3)cc1,inactive: -5.28%,–
FC(F)(F)c1cccc(C2=NOC3(CCN(Cc4ccccc4)C3)C2)c1 (stereo not given),inactive: -27%,–
O=C(c1ccc(Cl)cc1)N1CCC(N2CCCC2)CC1,inactive: -26.2%,–
O=C(O)C1=NOC2CN(Cc3c(F)cccc3Cl)CC12 (stereo not given),inactive: -19%,–
CN1CC(=O)N(C2CCCNC2)Cc2c(NCCO)ncnc21 (stereo not given),inactive: -12.6%,–
O=S(=O)(c1ccccc1)N1Cc2ccccc2CC2(CCN(Cc3cccnc3)C2)C1 (stereo not given),inactive: -27.4%,–
O=C1NCc2ccccc2CC12CCN(Cc1ccc(F)cc1O)C2 (stereo not given),inactive: -13.4%,–
COc1ccc(Cl)cc1CN(C)c1cc(C2CC(N)C2)ncn1 (stereo not given),inactive: 9.28% [at 64.5 µM],–
Cc1cc(C(=O)NC2CCCC2)c2c(C3CCNC3)noc2n1 (stereo not given),inactive: -16.7%,–
O=C(NCc1ccncc1)c1cc(C2CC2)nc2onc(C3CCCN3)c12 (stereo not given),inactive: -10.6%,–
CC1CCN(CC2CCCNCC2)CC1 (stereo not given),inactive: 17.8% [at 64.5 µM],–
Cn1cccc1CN1CCCCC12Cc1ccccc1CNC2=O (stereo not given),inactive: 139%,–
CNCc1ccc(F)cc1,inactive: 3.07% [at 233 µM],–
Cc1ccc(-c2ccccc2C=O)cc1Cl,inactive: -26.7%,–
CNC(=O)c1cnn2c1CN(C(=O)c1ccccc1)CC2,inactive: 6.53%,–
CCCN1CCC2(Cc3ccccc3CN(C(=O)Cc3ccc(O)cc3)C2)C1 (stereo not given),inactive: -35%,–
O=C1CCCN1CCCN1C(=O)[C@@H]2C[C@@H](O)CN2C2(CN(Cc3ccc(OC(F)(F)F)cc3)C2)C1=O,inactive: -13% [at 64.5 µM],–
O=C1NC(=NC2CCCC2)C2(CCN(CC3CC3)C2)N1c1cccnc1 (stereo not given),inactive: -8.29%,–
COc1ccc([C@H]2C[C@@H](O)[C@@H](O)[C@@H]2NC(=O)Cc2ccc(Cl)cc2)cc1,inactive: 0.548% [at 64.5 µM],–
CN1CC(=O)N(C2CNC2)Cc2c(NCC3CC3)ncnc21,inactive: -4.09%,–
C[S+](=O)([O-])N1Cc2ccccc2CC2(CCCN2CC2CCNCC2)C1 (stereo not given),inactive: -13.3%,–

Structure (SMILES),"activity change, negative = inhibition",Potency
Cn1ccnc1C(O)c1cc2n(n1)CCN(S(=O)(=O)C1CC1)C2 (stereo not given),inactive: 1.79% [at 64.5 µM],–
COc1cccc(N2C(=O)NC(=NC3CCCC3)C23CCN(Cc2ccsc2)C3)c1 (stereo not given),inactive: -22.4%,–
CN1CC(=O)N(C2CCCNC2)Cc2c(NC3CCCCC3)ncnc21 (stereo not given),inactive: -17.2%,–
CN1CC(=O)N(C2CCCNCC2)Cc2c1ncnc2N1CCN(c2ncccn2)CC1 (stereo not given),inactive: -7.46%,–
N#Cc1ccc(CN2CCC3(CC(c4cccc(C(F)(F)F)c4)=NO3)C2)cc1 (stereo not given),inactive: -30.1%,–
CNCc1cccn1C,inactive: -7.18% [at 233 µM],–
O=C1c2ccccc2CN1C1CCN(Cc2cccc3ccccc23)CC1,inactive: -31%,–
O=C(NCCN1CCN(c2ccccc2)CC1)Nc1cccc(Br)c1,inactive: -20.6%,–
CC(C)NCC1(COc2ccc(C(F)(F)F)cn2)C[C@@H](O)[C@@H](O)C1 (stereo not given in full),inactive: 11.5% [at 64.5 µM],–
CC1C=CC(C)N1c1ncnc2c1CN(C1CCNCC1)C(=O)CN2C (stereo not given),inactive: -20.5%,–
C=CCNC(=O)c1cn2c(n1)CN(C(=O)c1ccccc1)CC2,inactive: -11.8%,–
C=CCNc1oc(-c2cccc3ccccc23)nc1C#N,inactive: 1.51% [at 64.5 µM],–
O=Cc1cccc(N2CCN(C(=O)c3ccc4c(c3)OCO4)CC2=O)c1,inactive: -11%,–
CC(C)[S+](=O)([O-])N1CCN(c2ccc(Cl)nn2)C(=O)C1,inactive: -24.6%,–
CCN1CCCC2(Cc3ccccc3CN([S+](=O)([O-])c3ccccc3)C2)C1 (stereo not given),inactive: -6.93%,–
COc1cc(F)ccc1-c1ccc2c(n1)c(=O)ncn2CCC(F)(F)F,inactive: 0.683% [at 64.5 µM],–
COc1ccc(CC(=O)N2Cc3ccccc3CC23CCCN(C(=O)CCCN)C3)cc1 (stereo not given),inactive: -15.4%,–
CCC(=O)NC(c1cc(Cl)c2cccnc2c1O)C1CC1 (stereo not given),–,active: 12.2 µM
COc1ccc(CNc2ncnc3c2CN(C2CCCNC2)C(=O)CN3C)cc1OC (stereo not given),inactive: 6.62%,–
CN1CCC(C(=O)N2CCCC3(Cc4ccccc4CN3C(=O)c3ccccc3)C2)CC1 (stereo not given),inactive: -13.5%,–
NCCCC(=O)N1CCC2(CC1)CN(C(=O)Cc1ccc(Cl)cc1)CCO2,inactive: -4.66%,–
CCCN1CCC2(Cc3ccccc3CN(C(=O)CCCC(=O)O)C2)C1 (stereo not given),inactive: -17.1%,–
